One molecule from the supplement of paper PMC8728848 can be followed below.

Assay in all cases: glycan array binding signal (z-score within array); higher = stronger binding
What all share (conditions): glycan notation: IUPAC condensed, linker removed

One assay deals with Gal(b1-4)Glc. The method, boiled down: (§1)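 Arrays were curated from the Consortium for Functional Glycomics database, 3228 in total, and kept only where the protein sequence was available. Binding is expressed as a within-array Z-score. This score was averaged across arrays of the same protein sequence at different concentrations or buffers and across linkers, and negative values can be read as non-binding.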

The next assay has as its target Gal(b1-4)Glc6S. The essentials:
as §1

The target of another assay is Gal(b1-4)GlcNAc. The essentials: as §1
For assay [1], the target named is Gal(b1-4)GlcNAc(a1-6)Gal(b1-4)GlcNAc. The essentials:
as §1

A further assay addresses Gal(b1-4)GlcNAc(b1-2)Man. The essentials:
as §1

Assay [2] has as its target Gal(b1-4)GlcNAc(b1-2)Man(a1-3)Man(b1-4)GlcNAc(b1-4)GlcNAc. The essentials:
as §1

Assay [3] deals with Gal(b1-4)GlcNAc(b1-2)Man(a1-3)[Gal(b1-4)GlcNAc(b1-2)Man(a1-6)]Man(b1-4)GlcNAc(b1-4)GlcNAc. The essentials:
as §1

Assay [4] has as its target Gal(b1-4)GlcNAc(b1-2)Man(a1-3)[Gal(b1-4)GlcNAc(b1-2)Man(a1-6)]Man(b1-4)GlcNAc(b1-4)[Fuc(a1-6)]GlcNAc. The essentials: as §1
The target of assay [5] is Gal(b1-4)GlcNAc(b1-2)Man(a1-3)[Gal(b1-4)GlcNAc(b1-2)Man(a1-6)][Gal(b1-4)GlcNAc(b1-4)]Man(b1-4)GlcNAc(b1-4)[Fuc(a1-6)]GlcNAc. The essentials: as §1
The target of assay [6] is Gal(b1-4)GlcNAc(b1-2)Man(a1-3)[Gal(b1-4)GlcNAc(b1-2)Man(a1-6)][GlcNAc(b1-4)]Man(b1-4)GlcNAc(b1-4)[Fuc(a1-6)]GlcNAc. The method, boiled down: as §1
In assay [7] the target is Gal(b1-4)GlcNAc(b1-2)Man(a1-3)[GlcNAc(b1-2)Man(a1-6)]Man(b1-4)GlcNAc(b1-4)GlcNAc. The method, boiled down: as §1
For assay [8], the target named is Gal(b1-4)GlcNAc(b1-2)Man(a1-3)[GlcNAc(b1-4)][Gal(b1-4)GlcNAc(b1-2)Man(a1-6)]Man(b1-4)GlcNAc(b1-4)GlcNAc. The essentials:
as §1

Assay [9] deals with Gal(b1-4)GlcNAc(b1-2)Man(a1-3)[Man(a1-6)]Man(b1-4)GlcNAc(b1-4)GlcNAc. The essentials: as §1
In assay [10] the target is Gal(b1-4)GlcNAc(b1-2)Man(a1-6)Man(b1-4)GlcNAc(b1-4)GlcNAc. The method, boiled down:
as §1

Assay [11] concerns the target Gal(b1-4)GlcNAc(b1-2)Man(a1-6)[GlcNAc(b1-2)Man(a1-3)]Man(b1-4)GlcNAc(b1-4)GlcNAc. The method, boiled down:
as §1

The target in assay [12] is Gal(b1-4)GlcNAc(b1-2)Man(a1-6)[Man(a1-3)]Man(b1-4)GlcNAc(b1-4)GlcNAc. The essentials:
as §1

Assay [13] addresses Gal(b1-4)GlcNAc(b1-2)[Gal(b1-4)GlcNAc(b1-4)]Man(a1-3)[Gal(b1-4)GlcNAc(b1-2)Man(a1-6)]Man(b1-4)GlcNAc(b1-4)GlcNAc. The essentials:
as §1

Assay [14] deals with Gal(b1-4)GlcNAc(b1-2)[Gal(b1-4)GlcNAc(b1-4)]Man(a1-3)[Gal(b1-4)GlcNAc(b1-2)[Gal(b1-4)GlcNAc(b1-6)]Man(a1-6)]Man(b1-4)GlcNAc(b1-4)GlcNAc. The essentials: as §1
Assay [15] concerns the target Gal(b1-4)GlcNAc(b1-2)[Gal(b1-4)GlcNAc(b1-4)]Man(a1-3)[GlcNAc(b1-4)][Gal(b1-4)GlcNAc(b1-2)Man(a1-6)]Man(b1-4)GlcNAc(b1-4)GlcNAc. The essentials: as §1
Assay [16] concerns the target Gal(b1-4)GlcNAc(b1-2)[Gal(b1-4)GlcNAc(b1-4)]Man(a1-3)[GlcNAc(b1-4)][Gal(b1-4)GlcNAc(b1-2)[Gal(b1-4)GlcNAc(b1-6)]Man(a1-6)]Man(b1-4)GlcNAc(b1-4)GlcNAc. The essentials:
as §1

The target in assay [17] is Gal(b1-4)GlcNAc(b1-2)[Gal(b1-4)GlcNAc(b1-6)]Man(a1-6)[Gal(b1-4)GlcNAc(b1-2)Man(a1-3)]Man(b1-4)GlcNAc(b1-4)GlcNAc. The essentials: as §1
Assay [18] concerns the target Gal(b1-4)GlcNAc(b1-2)[Gal(b1-4)GlcNAc(b1-6)]Man(a1-6)[Gal(b1-4)GlcNAc(b1-2)Man(a1-3)]Man(b1-4)GlcNAc(b1-4)[Fuc(a1-6)]GlcNAc. The essentials:
as §1

Some of the results follow.

B1: B725 (Bifidobacterium sp) (protein)
chain: MNNTTRAVIATAAIGALLIPLAGCGNTTTSSGKTELTVWSWDASIDRAAKSFMKANPDITVKVSNVGSTEETYTALNNAAQAGSGLPDVTLIEYLAIPQFVHSDTLMDLSKVYNTAKLKDTFTPGTWNSVNINGGLYAMPADSGPMAYFYDKDVFDKAGISEPPTTWDEFYEDAKKIRATGSYITSDSGDAGLFNAMMWAMGGHAYKLNDDKLTINIAKDKGAQRFMDLWQKMRDEDLIDVHTKTWTDDWMKSLGDGSIASLISGAWMANNLLQGVPQATGKFRVALLPTIDGTPINGEYGGSGLAITKKIPDGKLDAAKKFVEYVTTNDEGIDARVSNGSFPATTKTLNQKDFLAKTTLRNTDGSDNEFFGGQKYNEIFSQAAKDVTGKWEFLPFEPYARSVYNDNMGSFFAGKTSFRTAADNWQKALKDYAKDQGFTVQ
Take B1: the “glycan array binding signal (z-score)” value with Gal(b1-4)Glc is 1.18; with Gal(b1-4)Glc6S it was -0.222; with Gal(b1-4)GlcNAc, 3.27; in assay [1], -0.176; in the assay with Gal(b1-4)GlcNAc(b1-2)Man it was -0.209; in [2], -0.229. For the same molecule, the “glycan array binding signal (z-score)” value was -0.212 in assay [3]; -0.204 in assay [4]; -0.231 in assay [5]; -0.234 in assay [6]; -0.23 in [7]; -0.208 in assay [8]. Also, the “glycan array binding signal (z-score)” value in assay [9] is -0.232; in [10], -0.219; in assay [11] it was -0.223; in [12] it was -0.226; in assay [13], -0.23; in assay [14] it was -0.22. Besides, the “glycan array binding signal (z-score)” value in assay [15] was -0.222; in assay [16], -0.211; in assay [17], -0.177; in assay [18], -0.192.
